According to the supplement of paper PMC11417369:
± gives the standard deviation of the averaged measurements. The list shows a part of the results.

system: PfAP2-G AP2 domain (GST-tagged); test: gcPBM binding intensity (ln(normalized median fluorescence intensity)); higher = stronger DNA binding
How it was run: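 Binding of GST-tagged P. falciparum DNA-binding domains, expressed in E. coli and used at about 25 μg on average, was carried out for 1 h in 1× PBS containing 1% milk, 0.2 mg/ml BSA, 0.5% salmon testes DNA and 0.03% Triton X-100. The target was an Agilent 4 × 180k array of primer-extended double-stranded 36-bp intergenic genomic probes plus negative controls, read with Alexa488 anti-GST antibody at 488 nm. Binding intensity is the highest Masliner-normalised natural-log median intensity across replicate spots of either probe orientation.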

Sequence	gcPBM binding intensity (ln)
TAAATTATTATCCCCTCACACACAAAAATAAAAAGA [CACACA_site2886]	10.5 ± 0.45
TATTTATAAACATACGCACACATTAATATATATATA [CACACA_site9314]	10.2 ± 0.18
TCTTATGATGGAATGTTAAATATTACATTTTGTTTA [TGCATGCA_negctrl_site503]	9.51 ± 0.22
TAAGATATAAAAAATGTGCACATTAAAGTATTAATT	10.3 ± 0.13
TGTTATTCTGCATATACACACAAATAACAATTTAAA [CACACA_site6943]	10.1 ± 0.23
TAATGTTTCAAAATTTAATATACTACAAATATTATA [TGCATGCA_negctrl_site336]	9.93 ± 0.41
ATGAACATCCAATATACACACATATATATTTATATT [CACACA_site829]	9.97 ± 0.057
TTTATATAGAAACACACACACAAAAAAAAAAAAAAA [CACACA_site2646]	9.81 ± 0.43
TTACAAAAAAAAAGGCGCGGATGGGGGCAATAGCAA [CACACA_negctrl_site238]	10.6 ± 0.55
CAAAAAAAAAAAAAAACACACATTAAATTATAAAGA [CACACA_site2613]	9.685 ± 0.064
TATAATATGACAAGAAGTACATATATTTACATATAT [XGTACX_site1571]	11.2 ± 0.85
ATATAATATTTTAGAGTGCACCGATAACAATAAATA [GTGCAC_site9754]	10.4 ± 0.4
CACATATATACACATACACACACACCCATACACCCA [CACACA_site8505]	10.5 ± 0.39
TTTACATTTTAGGAAGTGCATATAATAAATACTATC	10.1 ± 0.2
TACATAAATACATACACACACATATAACCAATGTAG [CACACA_site5243]	10.3 ± 0.11
ATCACATTCCACGGTACACACTAAAAGAAAAATCAG [CACACA_site5907]	11 ± 0.78
ATTTATATTTAATATACACACATTATTTTTTTATAT [CACACA_site574]	9.955 ± 0.021
AGAGTACAAGTAAATACACACATATATATGAAAATA [CACACA_site1079]	10.9 ± 0.61
ACAAAATTTACAAAATGTACAAAATATACAAAATGT [XGTACX_site3543]	10.6 ± 0.28
TATATGTGGGTTTTTTTTATGTGTTTTTCTTTTTTT [CACACA_negctrl_site936]	10.2 ± 0.18
CATTTCATTAATAAATGTACTTGTGAAGAGAAAAAG [XGTACX_site3115]	11.2 ± 0.71
AAAAGATAAAAAGAAGTGCATAATAGGAACAAATAT [GTGCAC_site9717]	10.28 ± 0.049
ATAATAAAAAGAAAAAGTACAAATGATTATGTTTGA [XGTACX_site3615]	11.2 ± 0.62

Sequence	gcPBM binding intensity (ln)
ATATATATATATATATATATAATAAAAGATCATTTA [XGTACX_negctrl_site371]	10 ± 0.59
TTATCTAGTACATACATACACACAACCATGTTATGA [CACACA_site3988]	11 ± 0.61
CAAGTATTATATTGCGCATGCAAAGAAGGACACAAA [TGCATGCA_site1024]	11.5 ± 0.94
AATAAATAAATAAGTACACACATATAAATATAAATA [CACACA_site6271]	11.6 ± 1.2
TTCTACATGAAGTTATAAATTAATATTTTAATTTAT [XGTACX_negctrl_site134]	9.61 ± 0.25
GTATTTCTTTAATATACACACACCAAAACAAAAAAA [CACACA_site579]	10.3 ± 0.38
TACTTTATTTTTTATACACACACAATATGTATATAT [CACACA_site9184]	10.2 ± 0.17
TTTCAAGAATTATATAAACACACATACATACACCCA [CACACA_site8592]	10.6 ± 0.62
ACATATATATATATTACACACACACTAATAAAATAA [CACACA_site7920]	10.08 ± 0.057
ATAAGGATCAGACACAAACACACATATATATATATA [CACACA_site558]	10.1 ± 0.3
AAATAATTCATATGTTGTACAGTAATTAAATTTTCT [XGTACX_site6343]	11.4 ± 0.95
ATAATTAATCCAAAATGTACTTACATTTTATATGAA [XGTACX_site8888]	11.1 ± 0.76
TTTTATAATTTATCTAAAAAAAAATAAAATAAAATG [TGCATGCA_negctrl_site429]	9.86 ± 0.4
ATAAAATAAAATAAAAGTACATAAATATATATATAT [XGTACX_site6110]	11.2 ± 0.83
TTTTTTTTTCTTTGCACACAGATAACTTGAAATTTG [CACACA_site2185]	10.3 ± 0.2
TATATATATTTAAATTGTACATATATTATTCATATG [XGTACX_site911]	10.9 ± 0.57
TCTTTCTATTAAACATGTACTTGTCTAAAGACATAA [XGTACX_site8564]	11.1 ± 0.65
CGAATAAATATATGTAGTACATGTTGTAGATAATTT [XGTACX_site1218]	11.5 ± 0.83
TTATTTTCTACAAATTGTACATATTTTTTACTACTC [XGTACX_site1394]	11.1 ± 0.59
ATTTATGAAAAAAATACATGCATGTCCATATAAATT [TGCATGCA_site505]	10.6 ± 0.31
AATAATATATATTACTGTACTAATATAAGGGACATC [XGTACX_site3744]	11.5 ± 0.96
AATTATAATAATAATAGTACATAAGTATATAAATAA [XGTACX_site2400]	11 ± 0.62
TCTTTCTAAATCTTACAAATTACTAAAATATTTATA [CACACA_negctrl_site87]	9.765 ± 0.007

Sequence	gcPBM binding intensity (ln)
GAGGAAAAAAAAAAAAGTACATTATATAAGAAAATT [XGTACX_site2610]	11.5 ± 1
TTAAATATTTATATTTGTACACAATCAATCATACAC [XGTACX_site5793]	11.3 ± 0.75
AATAATAAAATAAAAGTGCATTAATTATAATTCTTT [GTGCAC_site9491]	9.825 ± 0.049
AAAAAAAAAAAAAAAAGTACAAATTTAAAAATGTGT [XGTACX_site112]	11.6 ± 1
TTGGTTTCTTGTTTTTGTACCCATAATTTGTAATAT [XGTACX_site1248]	11.4 ± 0.87
TGTTTTGTTATTTTTATTTATATAAATAAAGCTATA [GTGCAC_negctrl_site88]	10.3 ± 0.64
ATATATATATTATATGCACACTAATAAGACTATTTA [CACACA_site5880]	10.1 ± 0.24
CATAAATACAGTAACACACACAAAAAAATATGAATA [CACACA_site6066]	10.09 ± 0.049
TTTGTTTGTAAAATGTTGCACTTTCTTTTGCTGATA	10.1 ± 0.12
ATAGGATTCTCAAAGTGTACTTGTCTACTGTAGTTT [XGTACX_site4202]	11.4 ± 0.88
CCATTATACACAATATGTACATATATATAATCATTT [XGTACX_site7942]	11.2 ± 0.76
AAAAAAAAAATATGTACACACATATAAAATACATAA [CACACA_site6869]	11.6 ± 1
ATATATATATTTTATTGTACAAAAAAAAAAAAAAAA [XGTACX_site6803]	11.1 ± 1
TTGTTATGCATTGGTTGTACATAAGTATAAGTAATT [XGTACX_site5401]	11.1 ± 0.67
TCGTAATAATATAAATGTACTTTATTAATTAAAAGA [XGTACX_site3416]	11.1 ± 0.6
TACAATATATTTATAGTGCATATTACTTTTAACTTT	9.875 ± 0.049
TACATCTTACTACTTATAATATAATATAGTATGAAT [TGCATGCA_negctrl_site8]	9.74 ± 0.13
CATTATGATTAAATATGTACATATTATTATATAAAT [XGTACX_site2477]	11.2 ± 0.66
ACATTGCACCCGTGCACACATAGAAAAATAATTCTT [CACACA_site409]	10.5 ± 0.32
GTAGTCCAAAAAAAGCGTACACAGAAAAAAAAAAAA [XGTACX_site4273]	11.6 ± 1
ATAACAAAAATCCTTGTGCACTATTTTAATAGAGTC	10.3 ± 0.31
AAAAAGTAAAAGAAAGCACACACACCGGTATATATG [CACACA_site9281]	9.995 ± 0.021
ATATAATTTATGTGCACACACTCCTATTTTTAGCTT [CACACA_site50]	10.6 ± 0.28

Sequence	gcPBM binding intensity (ln)
AAAAAAAATTTTATCTGTACACATTTTTTTCTTTTT [XGTACX_site4229]	11.6 ± 0.74
CATGCCTTTAAAAAGGTGCAAACATTTTCACAAACA	10.2 ± 0.22
TAATATATATGTATGGCACACACGGATAAATATATA [CACACA_site930]	10.21 ± 0.092
AAAAAAAATATGAAAACACACATATATAAATAAATA [CACACA_site113]	9.64 ± 0.18
TCTTTTTTAAATAAAAGTACAAAAAAAAATAAAAAA [XGTACX_site2670]	11.4 ± 0.87
AACAAAATAAGACACACACACAAATGTACCTATATA [CACACA_site7189]	11 ± 0.57
ATAAATGAGCCATATTAAATCCGTTACACGGGTGTG [CACACA_negctrl_site1368]	10
TTATCATATGTATGCATACACACAAAAAATTATATA [CACACA_site397]	10 ± 0.26
CAAACAAATATATGTTGTACTTATTATATATACATA [XGTACX_site2998]	11.3 ± 0.78
ATGTAATTCTTTTACTTTTTTTTTTTTTTTTTTTTT [CACACA_negctrl_site979]	10.7 ± 0.4
TTCTTTTAAATTAGCTGTACGGTTTTCTACATGCAT [XGTACX_site356]	11.1 ± 0.52
AACGGGTAATGCACAAAAAAAAAAAAATAAAATAAA [TGCATGCA_negctrl_site474]	10.1 ± 0.48
AAATTATTTTGTTATCATTATATATAGATTGAATAT [XGTACX_negctrl_site165]	9.68 ± 0.057
AGAATAAAAAGGAACACACACACACGCATATAAATA [CACACA_site7659]	10.24 ± 0.021
TTTATTTAATTCATTGCATGTAATTTTTGTGTCCAC [TGCATGCA_site677]	11.1 ± 0.91
TTTTATGATAATTTTGCACACACTTAGGAAAAATTA [CACACA_site1556]	10.2 ± 0.23
TTAAAAAAAAATGGCACACATTTTAATTTTATGTTT [CACACA_site5035]	10.3 ± 0.36
ATTTGTAATTATTAAACACACACAAAATATATATAA [CACACA_site8804]	10.2 ± 0.16
TTATTTTTTCTTTTTTTTCTTACCACAAAAATGGAT [CACACA_negctrl_site362]	10.1 ± 0.13
ATTTATTTATATAATACACACAAATATCTTAATGAA [CACACA_site6064]	9.88 ± 0.16
